# Assay results as given in PubChem BioAssay AID743255 (National Center for Advancing Translational Sciences (NCATS), 2014).
# The campaign covered roughly 390,000 compounds. About 910 (0.23%) were called active. About 5% were inconclusive and are not listed. The call rests on the fitted dose curve; in most records, active means well fitted inhibition curve with a large enough effect; inconclusive means small, poorly fitted or top-dose-only effect; inactive means no such curve, though single readings can be large or run the other way. This is a selection; strong and weak results do not stand in their true shares.
# Target: Ubiquitin carboxyl-terminal hydrolase 1 (Homo sapiens) (UniProt O94782)
# Chain of UniProt O94782 (O94782 whole entry, looked up): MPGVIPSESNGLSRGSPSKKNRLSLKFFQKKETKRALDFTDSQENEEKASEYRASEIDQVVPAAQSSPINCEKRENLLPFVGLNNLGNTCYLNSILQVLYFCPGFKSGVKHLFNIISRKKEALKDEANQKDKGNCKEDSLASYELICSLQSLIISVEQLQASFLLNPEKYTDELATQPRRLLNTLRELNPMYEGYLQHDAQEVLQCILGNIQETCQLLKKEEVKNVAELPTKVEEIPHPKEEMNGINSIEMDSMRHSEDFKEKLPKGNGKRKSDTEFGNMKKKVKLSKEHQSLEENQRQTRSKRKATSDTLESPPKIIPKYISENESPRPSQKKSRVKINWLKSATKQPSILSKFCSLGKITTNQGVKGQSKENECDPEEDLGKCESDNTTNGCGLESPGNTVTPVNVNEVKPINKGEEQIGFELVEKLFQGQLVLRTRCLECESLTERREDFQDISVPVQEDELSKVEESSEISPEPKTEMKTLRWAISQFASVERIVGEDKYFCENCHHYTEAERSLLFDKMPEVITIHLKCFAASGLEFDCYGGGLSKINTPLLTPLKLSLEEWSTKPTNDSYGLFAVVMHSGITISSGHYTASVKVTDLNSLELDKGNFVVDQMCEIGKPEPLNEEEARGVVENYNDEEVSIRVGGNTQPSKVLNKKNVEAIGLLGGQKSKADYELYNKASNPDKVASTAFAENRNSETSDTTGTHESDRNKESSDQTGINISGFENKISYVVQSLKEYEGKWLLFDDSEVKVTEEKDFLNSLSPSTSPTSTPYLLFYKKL
# Test: Inhibitors of USP1/UAF1: Primary Screen; further: nearly all actives have a fitted effect of over 60% in size
# Conditions: recombinant USP1/UAF1, Ub-Rhodamine cleavage fluorescence; activity change, negative = inhibition: at 57.1 µM (top of the series)
# How it was run: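 High-throughput fluorogenic screen: 1nM USP1/UAF1 complex, Ub-Rho substrate 150nM final, 50mM HEPES pH 7.8 with 0.5mM EDTA, 0.1 mg/ml BSA, 1mM TCEP and 0.01% Tween-20.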
# On the % scale 0 is the no-effect control and ±100 the full control effect; potency means the concentration at half of the fitted maximal effect.
SMILES,"activity change, negative = inhibition",Potency
O=C(C1=C[C@H](c2csc3ccccc23)C[C@H](OCc2ccc(CO)cc2)O1)N1CCN(Cc2ccccc2)CC1,inactive: -22.9%,–
O=C(Nc1ccccc1)C1=C[C@@H](c2ccc(C(F)(F)F)cc2)C[C@@H](OCc2ccc(CO)cc2)O1,inactive: -16.7%,–
O=C(C1=NN(c2ccccc2)C2C(=O)N(c3ccccc3Cl)C(=O)C12)c1ccccc1 (stereo unspecified),inactive: 29%,–
COc1ccc(NC(=O)CNC(=O)Cn2c(C)cc3ccccc3c2=O)c(OC)c1,inactive: -16.1%,–
CCN1CCN(Cc2ccc(NC(=O)c3ccc(C)c(/C=C/c4cnc(Nc5cc(N6CCNCC6)nc(C)n5)cn4)c3)cc2C(F)(F)F)CC1,inactive: -21.3%,–
CCO[C@H]1OC(C(=O)NC2CC2)=C[C@@H](C2CC2)[C@@H]1CCCO,inactive: -25.3%,–
Cc1c(N2C(=O)/C(=C\c3cccc4ccccc34)SC2=S)c(=O)n(-c2ccccc2)n1C,inactive: -7.23%,–
C[C@H](CO)N1C[C@H](C)[C@@H](CN(C)S(=O)(=O)c2ccccc2)OCc2cn(nn2)CCCC1=O,inactive: -27.9%,–
O=C(N/N=C/c1c(O)n(Cc2ccccc2)c(=O)c2ccccc12)c1cccnc1,–,active: 25.1 µM
CCCCOC(=O)c1ccc(NC(=O)c2sc3nc(C)cc(C)c3c2N)cc1,inactive: 31.3%,–
O=C(NCc1nc2ccccc2[nH]1)C1=C[C@@H](c2ccc(Br)cc2)C[C@@H](OCc2ccc(CO)cc2)O1,inactive: 7.07%,–
COc1ccc(-n2nc3c(N4CCC(C(=O)NCc5ccccc5C)CC4)nnc(C)c3c2C)cc1,inactive: -22.3%,–
Cc1ccc(CNC(=O)c2cc(=O)c3cc(C)ccc3o2)cc1,inactive: -16.5%,–
CCc1ccc(NC2=CC(=O)C(=O)c3ccccc32)cc1,–,active: 28.2 µM
C[C@H](CO)N1C[C@H](C)[C@@H](CN(C)C(=O)c2cc(-c3ccccc3)on2)OCc2cnnn2CCCC1=O,inactive: -11.9%,–
CCc1cccc(C)c1NC(=O)CC1Oc2ccc(C)cc2NC1=O (stereo unspecified),inactive: -16.5%,–
COC(=O)c1cc2occc2n1Cc1nc(-c2ccccc2F)oc1C,inactive: -24.9%,–
C=CC[C@@H](CC(=O)N[C@H](CO)Cc1ccccc1)C(=O)N[C@@H](COC(=O)[C@@H](CC=C)CC(=O)OC(C)(C)C)Cc1c[nH]c2ccccc12,inactive: -29.1%,–
N#C/C(=C/c1ccc(N2CCOCC2)o1)c1nc2ccccc2[nH]1,–,active: 25.1 µM

SMILES,"activity change, negative = inhibition",Potency
COc1ccc(CNC(=O)CN2C(=O)COc3ccc(S(=O)(=O)NC4CCCC4)cc32)cc1,inactive: -23%,–
Cc1nc2scc(C)n2c(=O)c1S(=O)(=O)NCc1ccccc1Cl,inactive: -6.78%,–
Cn1cccc1/C=C1\SC(=S)N(Nc2ccccc2)C1=O,inactive: 43.6%,–
O=C1OC[C@@H]2CCCN2C(=O)[C@@H](CC(=O)N(CCO)Cc2ccccc2)C/C=C\CC[C@H]1Cc1ccc(F)cc1,inactive: -31.3%,–
COC1=CC(=O)c2c(ccc3ncnc(N)c23)C1=O,–,active: 0.891 µM
CCOC(=O)N1CCN(S(=O)(=O)N2CCCC(C(=O)NCc3cc(OC)ccc3OC)C2)CC1 (stereo unspecified),inactive: -12.5%,–
COc1cccc(S(=O)(=O)N(C)C[C@H]2OCc3cnnn3CCCC(=O)N([C@@H](C)CO)C[C@H]2C)c1,inactive: -17.3%,–
COc1ccc(C(=O)NC(=S)NNC(=O)CCc2ccccc2)cc1,inactive: 31.1%,–
CCN(CC)S(=O)(=O)c1ccc(C(O)=C(C#N)c2nc3ccccc3n2C)cc1,inactive: -23.7%,–
COc1cc(N=Cc2c(O)c3ccccc3oc2=O)c(OC)cc1Cl,inactive: -30.5%,–
N#C/C(=C\c1ccc(-c2ccccc2C(=O)O)o1)c1nc2ccccc2[nH]1,inactive: -4.4%,–
COc1cccc(CNC(=O)c2nnn(CC(=O)Nc3cc(Cl)ccc3C)c2N)c1,inactive: -10.7%,–
C#CCNC(=O)C1=C[C@@H](c2ccc(C(F)(F)F)cc2)[C@H](CCCO)[C@@H](OCC)O1,inactive: -15.9%,–
Cc1cc(C)cc(NC(=O)Cn2nnc(C(=O)NCCc3ccccc3)c2N)c1,inactive: -15.8%,–
Nc1ccc(C(=O)O)cc1,–,inactive
CC(C)(C)S(=O)(=O)N1C[C@@H]2CC/C=C\C/C(c3ccccc3)=C\2[C@H]1CCO,inactive: -22.4%,–
CC(C)c1ccc2c(c1)CC[C@H]1[C@](C)(CN)CCC[C@]21C,–,inactive
Cc1ccc(S(=O)(=O)NC(=O)Nc2ccc(N(C)C)cc2)cc1,–,active: 17.8 µM
C=CCOc1cccc(C2C(C(=O)c3ccc(C)o3)=C(O)C(=O)N2c2nccs2)c1 (stereo unspecified),inactive: 33.8%,–

SMILES,"activity change, negative = inhibition",Potency
CCc1ccccc1NC(=O)c1cc(-c2ccc3c(c2)OCO3)on1,inactive: -7.97%,–
COc1ccc(CNC(=O)CN2C(=O)COc3ccc(S(=O)(=O)N4CCOCC4)cc32)cc1,inactive: -22.9%,–
Cc1cccc(N2CCN(C(=O)c3ccc4c(c3)c(C)c(C)n4C)CC2C)c1 (stereo unspecified),inactive: -25.4%,–
C=CC[C@H](CC(=O)N[C@H](CO)Cc1ccccc1)C(=O)N[C@@H](COC(=O)[C@@H](CC=C)CC(=O)OC(C)(C)C)Cc1c[nH]c2ccccc12,inactive: -21.8%,–
C[C@H]1CN([C@@H](C)CO)C(=O)CCCn2nncc2CO[C@H]1CN(C)S(=O)(=O)c1ccc(Oc2ccccc2)nc1,inactive: -24.1%,–
CN(C)c1ccc(C(CNS(=O)(=O)c2ccc(F)cc2)N2CCc3ccccc32)cc1 (stereo unspecified),inactive: 65.7%,–
Cc1ccc2cccc(Oc3ncnc4scc(-c5ccc(Cl)cc5)c34)c2n1,–,active: 14.1 µM
COc1cccc(-n2nnc(-c3nc(-c4ccccc4F)no3)c2C)c1,inactive: 44.5%,–
CCOCCCN(Cc1ccco1)C(=O)c1cc2c(=O)[nH]c3ccc(C)cc3c2s1,inactive: -6.74%,–
CC(C)c1ccc(OCC(O)CN2CCN(c3ccc(F)cc3)CC2)cc1 (stereo unspecified),inactive: 43%,–
Cc1c(C(C)CCCO)oc(=O)c2c1Oc1c(C)c(C(C)C[C@H](C)O)oc(=O)c1C2 (stereo partly specified),inactive: -14.7%,–
CCOC(=O)c1ccc(NC(=O)CC2NCCNC2=O)cc1 (stereo unspecified),inactive: 3.39%,–
CC1CCCN(CCCNC(=O)CN2C(=O)CSc3ccc(S(=O)(=O)N4CCOCC4)cc32)C1 (stereo unspecified),inactive: -1.77%,–
C[C@H]1COC(=O)[C@@H](CC(=O)OC(C)(C)C)C/C=C\C[C@@H](CC(=O)N(CCO)Cc2ccccc2)C(=O)N1,inactive: -9.2%,–
Cc1cccc(CS(=O)(=O)c2ncc(Cl)c(C(=O)NCc3ccccc3)n2)c1,inactive: -12.4%,–
CCN1/C(=C\c2ccc3cc(C)ccc3[n+]2CC)Sc2cc(C)c(C)cc21,inactive: -14.9%,–
COC(=O)C1=COC(OC2OC(CO)C(O)C(O)C2O)C2C1C=CC2(O)CO (stereo unspecified),inactive: -15%,–
CCOC(=O)c1ccccc1NC(=O)Cn1c(=O)n(Cc2ccccc2)c(=O)c2c(C)c(C)sc21,inactive: -21.8%,–
